# In the supplement of paper PMC8728848:
# This is one part of the list.
# B1: Pbx2 (Cryptococcus neoformans) (protein)
# chain: AVSPLPSSTELVFYSQKRRRRRICSTATGSLSTPDPTRMTSDPYKRVGMRFSSVPRLLITFLSLLLLVSAAPPCVRFADYDSINQMFIDGGPGTKVLLCPNRLYRLSGPIIFTAADQEIATYGYPTGSERAVLRVEGRNTATAIQGDCRRCARVSVKNLVVDGNRKKLGRMRDFQLATGLVVLGGNEGQSIQNSWIKNPRGFTAIHIREGDKLQCSGARVEKNEIGPVGEEYDPEKDGDDPEMSPLGRPLADGVSIACRDSFIRDNTFRDNTDAAIVVYCSPGTLIHANHIFAQSLSAMAGILMVDSTPFNGDYTGTVVRSNIIDAVSRTIRVGIGIGPTVWSDDTETILTGGSVIGNGLKGRYMGYGIAAAGLKQWTIKDNWDEAKHEGRKSARCFDEPVNPDPIGLLYNRPTMEDCTVQSGFADHDFQYLVCIDGLYDKTNPPKHDPAPLAHDPSPTNAQEDNTVQQDGGDSKSKSIEQPREASDIEAEPSVEKMFSTGSEMMDDVLEHSHQRMHEVIDHLSRRIDILGAASAGKGSGDSKISEVLDPAMSSHLEKLQRKIEHLEFSLRSQIETAIQLRSAIQGWDQEMALVTDWEYDILLDVRHKLELSSYPHDQPLDPRLMRGQSYLNNEAVLVDDHSHPSLEGENLRAMSDRARLNANEEA
# Experiments:
# Assay in all cases: glycan array binding signal (z-score within array); higher = stronger binding
# Conditions in all cases: glycan notation: IUPAC condensed, linker removed
# [1] = target: Neu5Ac(a2-3)Gal(b1-3)[Fuc(a1-4)]GlcNAc(b1-3)Gal(b1-3)[Fuc(a1-4)]GlcNAc
# Procedure, shortened: (§1)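 From the Consortium for Functional Glycomics database, 3228 arrays were curated, keeping only those whose protein sequence was available. Binding is given as a within-array Z-score averaged across arrays sharing a protein sequence and across linkers. Negative Z-scores can be read as non-binding.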
# [2] = target: Neu5Ac(a2-3)Gal(b1-3)[Fuc(a1-4)]GlcNAc(b1-3)Gal(b1-4)[Fuc(a1-3)]GlcNAc
# Procedure, shortened: as §1
# [3] = target: Neu5Ac(a2-3)Gal(b1-3)[GlcNAc(b1-6)]GalNAc
# Procedure, shortened: as §1
# [4] = target: Neu5Ac(a2-3)Gal(b1-3)[Neu5Ac(a2-6)]GalNAc
# Procedure, shortened: as §1
# [5] = target: Neu5Ac(a2-3)Gal(b1-3)[Neu5Ac(a2-6)]GlcNAc(b1-3)[Fuc(a1-3)[Gal(b1-4)]GlcNAc(b1-6)]Gal(b1-4)Glc
# Procedure, shortened: as §1
# [6] = target: Neu5Ac(a2-3)Gal(b1-3)]Neu5Ac(a2-3)Gal(b1-4)]GlcNAc
# Procedure, shortened: as §1
# Neu5Ac(a2-3)Gal(b1-4)Glc = target: Neu5Ac(a2-3)Gal(b1-4)Glc
# Procedure, shortened: as §1
# [7] = target: Neu5Ac(a2-3)Gal(b1-4)GlcNAc
# Procedure, shortened: as §1
# [8] = target: Neu5Ac(a2-3)Gal(b1-4)GlcNAc(b1-2)Man
# Procedure, shortened: as §1
# [9] = target: Neu5Ac(a2-3)Gal(b1-4)GlcNAc(b1-2)Man(a1-3)[GlcNAc(b1-4)][Neu5Ac(a2-3)Gal(b1-4)GlcNAc(b1-2)Man(a1-6)]Man(b1-4)GlcNAc(b1-4)GlcNAc
# Procedure, shortened: as §1
# [10] = target: Neu5Ac(a2-3)Gal(b1-4)GlcNAc(b1-2)Man(a1-3)[Neu5Ac(a2-3)Gal(b1-4)GlcNAc(b1-2)Man(a1-6)]Man(b1-4)GlcNAc(b1-4)GlcNAc
# Procedure, shortened: as §1
# [11] = target: Neu5Ac(a2-3)Gal(b1-4)GlcNAc(b1-2)Man(a1-3)[Neu5Ac(a2-3)Gal(b1-4)GlcNAc(b1-2)Man(a1-6)]Man(b1-4)GlcNAc(b1-4)[Fuc(a1-6)]GlcNAc
# Procedure, shortened: as §1
# [12] = target: Neu5Ac(a2-3)Gal(b1-4)GlcNAc(b1-2)Man(a1-3)[Neu5Ac(a2-6)Gal(b1-4)GlcNAc(b1-2)Man(a1-6)]Man(b1-4)GlcNAc(b1-4)GlcNAc
# Procedure, shortened: as §1
# [13] = target: Neu5Ac(a2-3)Gal(b1-4)GlcNAc(b1-2)[Neu5Ac(a2-3)Gal(b1-4)GlcNAc(b1-4)]Man(a1-3)[GlcNAc(b1-4)][Neu5Ac(a2-3)Gal(b1-4)GlcNAc(b1-2)[Neu5Ac(a2-3)Gal(b1-4)GlcNAc(b1-6)]Man(a1-6)]Man(b1-4)GlcNAc(b1-4)GlcNAc
# Procedure, shortened: as §1
# [14] = target: Neu5Ac(a2-3)Gal(b1-4)GlcNAc(b1-2)[Neu5Ac(a2-3)Gal(b1-4)GlcNAc(b1-4)]Man(a1-3)[GlcNAc(b1-4)][Neu5Ac(a2-3)Gal(b1-4)GlcNAc(b1-4)Man(a1-6)]Man(b1-4)GlcNAc(b1-4)GlcNAc
# Procedure, shortened: as §1
# [15] = target: Neu5Ac(a2-3)Gal(b1-4)GlcNAc(b1-2)[Neu5Ac(a2-3)Gal(b1-4)GlcNAc(b1-6)]Man(a1-6)[Neu5Ac(a2-3)Gal(b1-4)GlcNAc(b1-2)Man(a1-3)]Man(b1-4)GlcNAc(b1-4)GlcNAc
# Procedure, shortened: as §1
# [16] = target: Neu5Ac(a2-3)Gal(b1-4)GlcNAc(b1-2)[Neu5Ac(a2-3)Gal(b1-4)GlcNAc(b1-6)]Man(a1-6)[Neu5Ac(a2-3)Gal(b1-4)GlcNAc(b1-2)Man(a1-3)][GlcNAc(b1-4)]Man(b1-4)GlcNAc(b1-4)GlcNAc
# Procedure, shortened: as §1
# [17] = target: Neu5Ac(a2-3)Gal(b1-4)GlcNAc(b1-3)Gal
# Procedure, shortened: as §1
# [18] = target: Neu5Ac(a2-3)Gal(b1-4)GlcNAc(b1-3)Gal(b1-3)GlcNAc
# Procedure, shortened: as §1
# [19] = target: Neu5Ac(a2-3)Gal(b1-4)GlcNAc(b1-3)Gal(b1-4)GlcNAc
# Procedure, shortened: as §1
# [20] = target: Neu5Ac(a2-3)Gal(b1-4)GlcNAc(b1-3)Gal(b1-4)GlcNAc(b1-2)Man(a1-3)[Neu5Ac(a2-3)Gal(b1-4)GlcNAc(b1-3)Gal(b1-4)GlcNAc(b1-2)Man(a1-6)]Man(b1-4)GlcNAc(b1-4)GlcNAc
# Procedure, shortened: as §1
# [21] = target: Neu5Ac(a2-3)Gal(b1-4)GlcNAc(b1-3)Gal(b1-4)GlcNAc(b1-3)Gal(b1-4)GlcNAc
# Procedure, shortened: as §1
# [22] = target: Neu5Ac(a2-3)Gal(b1-4)GlcNAc(b1-3)Gal(b1-4)GlcNAc(b1-3)Gal(b1-4)GlcNAc(b1-2)Man(a1-3)[Neu5Ac(a2-3)Gal(b1-4)GlcNAc(b1-3)Gal(b1-4)GlcNAc(b1-3)Gal(b1-4)GlcNAc(b1-2)Man(a1-6)]GalNAc
# Procedure, shortened: as §1
# [23] = target: Neu5Ac(a2-3)Gal(b1-4)GlcNAc(b1-3)Gal(b1-4)GlcNAc(b1-3)GalNAc
# Procedure, shortened: as §1
# [24] = target: Neu5Ac(a2-3)Gal(b1-4)GlcNAc(b1-3)Gal(b1-4)GlcNAc(b1-3)[Neu5Ac(a2-3)Gal(b1-4)GlcNAc(b1-3)Gal(b1-4)GlcNAc(b1-6)]GalNAc
# Procedure, shortened: as §1
# [25] = target: Neu5Ac(a2-3)Gal(b1-4)GlcNAc(b1-3)Gal(b1-4)GlcNAc(b1-6)[Gal(b1-3)]GalNAc
# Procedure, shortened: as §1
# [26] = target: Neu5Ac(a2-3)Gal(b1-4)GlcNAc(b1-3)Gal(b1-4)[Fuc(a1-3)]GlcNAc
# Procedure, shortened: as §1
# [27] = target: Neu5Ac(a2-3)Gal(b1-4)GlcNAc(b1-3)GalNAc
# Procedure, shortened: as §1
# [28] = target: Neu5Ac(a2-3)Gal(b1-4)GlcNAc(b1-3)[Neu5Ac(a2-3)Gal(b1-4)GlcNAc(b1-6)]GalNAc
# Procedure, shortened: as §1
# [29] = target: Neu5Ac(a2-3)Gal(b1-4)GlcNAc(b1-6)GalNAc
# Procedure, shortened: as §1
binder,measurement,setting,value
B1,glycan array binding signal (z-score),[1],-0.331
same,glycan array binding signal (z-score),[2],-0.403
same,glycan array binding signal (z-score),[3],-0.075
same,glycan array binding signal (z-score),[4],-0.113
same,glycan array binding signal (z-score),[5],-0.609
same,glycan array binding signal (z-score),[6],-0.589
same,glycan array binding signal (z-score),Neu5Ac(a2-3)Gal(b1-4)Glc,-0.585
same,glycan array binding signal (z-score),[7],-0.694
same,glycan array binding signal (z-score),[8],4.34
same,glycan array binding signal (z-score),[9],0.56
same,glycan array binding signal (z-score),[10],-0.607
same,glycan array binding signal (z-score),[11],-0.396
same,glycan array binding signal (z-score),[12],0.264
same,glycan array binding signal (z-score),[13],-0.213
same,glycan array binding signal (z-score),[14],-0.025
same,glycan array binding signal (z-score),[15],0.027
same,glycan array binding signal (z-score),[16],0.444
same,glycan array binding signal (z-score),[17],-0.058
same,glycan array binding signal (z-score),[18],0.027
same,glycan array binding signal (z-score),[19],-0.522
same,glycan array binding signal (z-score),[20],1.29
same,glycan array binding signal (z-score),[21],-0.461
same,glycan array binding signal (z-score),[22],0.926
same,glycan array binding signal (z-score),[23],-0.28
same,glycan array binding signal (z-score),[24],-0.471
same,glycan array binding signal (z-score),[25],-0.121
same,glycan array binding signal (z-score),[26],-0.444
same,glycan array binding signal (z-score),[27],0.743
same,glycan array binding signal (z-score),[28],-0.557
same,glycan array binding signal (z-score),[29],0.057
